Experimental findings from PubChem BioAssay AID1346428 (National Center for Advancing Translational Sciences (NCATS), 2018) are described below.

About 1,200 (2.5%) of roughly 48,000 compounds were called active. About 2% were inconclusive and are not listed.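 Rule for the calls: active = activation of at least 60% and not above a set upper limit (about 1 call in 100 departs from these limits); inconclusive = activation of 40% to 60%, or above that upper limit; inactive = activation under 40%.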 Some of the results follow.

Sequence of UniProt O75388 (O75388 whole entry, looked up, the tested form may be a part): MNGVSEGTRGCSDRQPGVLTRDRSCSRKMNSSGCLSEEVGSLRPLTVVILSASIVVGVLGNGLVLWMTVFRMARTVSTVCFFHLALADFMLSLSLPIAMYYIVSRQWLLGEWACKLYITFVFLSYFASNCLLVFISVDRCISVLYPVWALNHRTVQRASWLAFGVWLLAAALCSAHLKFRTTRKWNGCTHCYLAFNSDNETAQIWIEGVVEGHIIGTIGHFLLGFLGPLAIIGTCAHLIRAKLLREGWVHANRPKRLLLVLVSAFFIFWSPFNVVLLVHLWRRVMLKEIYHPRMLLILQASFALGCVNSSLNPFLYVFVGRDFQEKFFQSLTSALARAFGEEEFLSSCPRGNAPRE

The target of this assay is Probable G-protein coupled receptor 32 (Homo sapiens) (UniProt O75388). As to the kind of experiment: qHTS for Agonists of Human Resolvin D1 Receptor DRV1. Note: 0% is about no effect. As to conditions: CHO-K1 GPR32 beta-arrestin PathHunter luminescence, 90 min; at 76.9 µM; stronger effect = higher value; zero percent set by DMSO-only wells. Put shortly:
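Agonism was scored as beta-arrestin recruitment to ProLink-fused GPR32 in stably transfected CHO-K1 cells, giving a chemiluminescent beta-Gal signal; compounds were incubated 90 min at 37 °C.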
Regarding `Cc1nc(N2CCCC2)c2c(C(=O)N3CCN(c4cc(Cl)ccc4C)CC3)c(C)oc2n1`, the activation was inactive: -27.3%.

`CC(C)N(C(=O)Cn1cc(S(=O)(=O)Cc2ccc(Cl)cc2)c2ccccc21)C(C)C`: the activation was inactive: -12.8%.

Regarding `COc1cc(Nc2nc(SCC(=O)c3ccc(Cl)c(Cl)c3)nc3ccccc23)cc(OC)c1`, the activation is inactive: -25.5%.

In the case of `O=C(CCC1N=C2c3ccccc3N=C(SCC(=O)Nc3ccc(F)cc3)N2C1=O)NCc1ccco1` (stereo not drawn), the activation was inactive: -8.65%.

Regarding `O=C(Nc1ccc2nc3n(c(=O)c2c1)CCCCC3)c1cccc(C(F)(F)F)c1`, the activation is inactive: -2.97%.

With `Nc1nn(-c2ccccc2)nc1C(=O)OCc1c(F)cccc1Cl`, the activation is inactive: -22.6%.

In the case of `Cc1ccc(N(Cc2cccs2)C(=O)c2ccco2)cc1`, the activation was inactive: -20.6%.

Regarding `COc1ccc(-n2c(SCC(=O)NCc3ccccc3)nc3c([nH]c4ccccc43)c2=O)cc1`, the activation is inactive: -7.76%.

Regarding `Nc1c(S(=O)(=O)O)cc(Nc2ccc(Nc3nc(Cl)nc(Nc4ccc(S(=O)(=O)O)cc4)n3)c(S(=O)(=O)O)c2)c2c1C(=O)c1ccccc1C2=O`, the activation is inactive: -54.7%.

For the molecule `COc1ccc(NC(=O)CC2Nc3ccccc3NC2=O)cc1` (stereo not drawn), the activation was inactive: -27.7%.

Take `COc1ccc(Nc2nn(-c3ccc(OC(F)(F)F)cc3)nc2C(C)=O)cc1`: the activation is inactive: 7.05%.

For the molecule `Cc1cc(C(=O)NCc2ccccc2)c2c(C)nn(-c3cccc(F)c3)c2n1`, the activation was inactive: -18.4%.

For the molecule `CCCCN(C)C(=O)Cn1cnc2sc(C)c(S(=O)(=O)N3CCC(C)CC3)c2c1=O`, the activation was inactive: -8.74%.

`COc1ccc(OC)c(NC(=O)c2ccc3c(Cl)c4c(nc3c2)CCCC4)c1`: the activation was inactive: -16.2%.

As for `COc1cc(OC)c(NC(=O)N2CCC(CN3CCCC3)CC2)cc1Cl`, the activation was inactive: -13.8%.

On to `CCOC(=O)c1ccc(Nc2nn3c(=O)c4ccccc4nc3s2)cc1`, for which the activation was inactive: 5.13%.

Regarding `COc1ccccc1Nc1ncnc2scc(-c3ccc(F)cc3)c12`, the activation is inactive: -7.13%.

On to `Cc1nn(-c2ccccc2)c2c1N(CC(=O)N1CCN(c3ccccc3F)CC1)C(=O)CS2`, for which the activation is inactive: 29.2%.

Consider `Cc1ccc(CNc2ccc3cc(S(=O)(=O)N4CCCCC4)ccc3n2)cc1`, for which the activation is inactive: -18.3%.

For the molecule `CCN(CC)c1ccc(C2Nc3ccccc3-c3cc(C)nn32)cc1` (stereo not drawn), the activation was inactive: -18.7%.

Take `Cc1ccc(S(=O)(=O)c2nc(-c3ccc(F)cc3)oc2N2CCN(c3ccccc3)CC2)cc1`: the activation is inactive: -18.8%.

With `COc1ccc(C2(CNC(=O)C(=O)Nc3ccccc3C)CCCC2)cc1OC`, the activation was inactive: -18.1%.

`COc1ccc(CNC(=O)c2cccn2-c2nnc(N3CCCC3)s2)c(OC)c1`: the activation is inactive: 27%.

As to `CCCCN(CCCNC(=O)c1cc(Nc2ccccc2OC)nc2ccccc12)c1ccccc1`, the activation is inactive: -0.0029%.

In the case of `CCC(CC)c1nn2c(=O)cc(COc3ccc(NC(=O)c4ccccc4C)cc3)nc2s1`, the activation was inactive: 26.2%.

For the molecule `COc1cc(NC(=O)CC2C(=O)OCCN2Cc2ccccc2)cc(OC)c1` (stereo not drawn), the activation was inactive: -3.25%.

As to `Cc1ccccc1NC(=O)c1ccc2[nH]c(C)c(C)c2c1`, the activation is inactive: -4.46%.

Consider `COc1cc(NS(=O)(=O)c2ccc(NC(=O)c3cccc(F)c3)cc2)nc(OC)n1`, for which the activation was inactive: 8.85%.

As for `COc1ccc(C(=O)NCC(c2cccnc2)N2CCN(c3ccccc3)CC2)cc1` (stereo not drawn), the activation is inactive: 5.34%.

For the molecule `CCCc1nn2c(=O)cc(COC(=O)c3cccc(NC(=O)c4cccs4)c3)nc2s1`, the activation was inactive: -39.4%.

Consider `CCc1cccc(C)c1NC(=O)CCS(=O)(=O)c1cc(Br)cc2c1N(C(=O)C1CC1)CC2`, for which the activation was inactive: -13%.

With `O=C(Nc1ccc(C(=O)OCc2cc(=O)n3c4c(sc3n2)CCCC4)cc1)c1ccc(F)cc1`, the activation was inactive: -10.1%.

`O=C(CCCCn1c(=O)c2ccccc2n(CC(=O)Nc2cccc(C(F)(F)F)c2)c1=O)NCc1ccc2c(c1)OCO2`: the activation is inactive: -30.3%.

On to `CCc1nn2c(-c3ccccc3OC)ccnc2c1-c1ccccc1`, for which the activation is inactive: -7.85%.

With `Cc1c(Cl)cccc1NC(=O)Cn1c(=O)n(Cc2ccco2)c(=O)c2sc3ccccc3c21`, the activation was inactive: -7.52%.

For the molecule `COc1ccc(S(=O)Cc2ccc(C(=O)N3CCN(c4cccc(C)c4C)CC3)o2)cc1` (stereo not drawn), the activation is inactive: 4.18%.

`Cc1c(C(=O)NCc2ccc(Cl)cc2)sc2nc3n(c(=O)c12)CCCCC3`: the activation is inactive: -7.68%.

Consider `Cc1ccc(-n2nnc(-c3nc(-c4cccs4)no3)c2N)cc1C`, for which the activation was inactive: 3.36%.

Regarding `Cc1ccccc1NC(=O)c1ccc(F)c(S(=O)(=O)N2CCN(c3ccccc3F)CC2)c1`, the activation is inactive: -16.8%.

Consider `COc1ccc(-c2nc(CSc3nncn4c3cc3oc(C)cc34)c(C)o2)cc1`, for which the activation is inactive: -7.98%.

As to `O=C(NCCc1ccccc1)C(=O)NCC(c1ccco1)S(=O)(=O)c1cccs1` (stereo not drawn), the activation was inactive: -11.3%.

As for `CCOC(=O)c1ccccc1NC(=O)CN1CCCN(Cc2cc(C)ccc2C)S1(=O)=O`, the activation is inactive: -0.744%.

For the molecule `COc1cc(NC(=O)CN2C(=O)c3ccccc3Sc3ccc(C(=O)N4CCCC4)cc32)cc(OC)c1`, the activation was inactive: -16.3%.

As to `COc1ccc(OC)c(CCNC(=O)c2ccc3c(c2)c(C)c(C)n3Cc2ccccc2)c1`, the activation is inactive: -11.5%.

`CCOC(=O)c1[nH]c2ccccc2c1NC(=O)c1ccccc1F`: the activation was inactive: 17.5%.

`CCN1CCN(CCCNC(=O)CS(=O)(=O)Cc2nc(-c3cccc(OC)c3)oc2C)CC1`: the activation was inactive: -14.1%.

As for `Cc1oc2ncnc(N3CCCCC3)c2c1C(=O)NCC1CCN(Cc2cccc(F)c2)CC1`, the activation was inactive: -4.51%.

Consider `COc1cc(OC)c(NC(=O)c2cc3c(=O)oc4ccc(C)cc4c3s2)cc1Cl`, for which the activation is inactive: 3.6%.

With `Cc1ccc(-n2ncc3c(NCCO)ncnc32)cc1Cl`, the activation is inactive: 48.1%.

For `Cc1cc(NC(=O)c2cc(-c3ccc(Cl)cc3)on2)n(-c2ccccc2)n1`, the activation is inactive: -3.57%.

As to `COc1ccc(-c2cc(C(=O)Nc3cccnc3)no2)cc1OC`, the activation is inactive: -2.11%.

Turning to `COc1ccc(CNC(=O)Cc2ccc(NC(=O)N3CCSc4ncccc43)cc2)cc1OC`, the activation is inactive: -9.36%.

With `COC(=O)c1cc2oc3ccccc3c2n1CC(=O)Nc1ccc(C)c(F)c1`, the activation was inactive: -7.37%.
